From PubChem BioAssay AID1347044 (National Center for Advancing Translational Sciences (NCATS), 2019)
The list shows a part of the results. Further columns of the screen follow, without active or inactive calls. Compounds called inactive in the main read-out are mostly missing here. The note in brackets gives the kind of curve behind each potency; many fits are weak.

Assay: Natriuretic polypeptide receptor (hNpr1) antagonism - Confirmation; also: nearly all actives have a fitted effect of over 70% in size
Settings: HEK293 hNpr1 cGMP GloSensor luminescence, ANP-stimulated; measured here: HEK-hNpr1 cytotoxicity, CellTiter-Glo
In short: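 Compound (30 min, room temperature) preceded stimulation with hNppA peptide at 0.1 nM final for 20 min. Cells were HEK293 carrying hNpr1 plus GloSensor pGS-40F cGMP biosensor, pre-equilibrated 2 h with 2% substrate; cGMP was followed as luminescence pre- and post-agonist.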
Tags tell the direction and shape of the fitted curve.

Question: With `Cc1noc(C)c1CCC(=O)NC1CCCc2c1[nH]c1c(Cl)cccc21` (stereo not given) as the molecule, how does the CC50 read?
Answer: 27.3 µM [falling, single point]

Question: With `COc1ccc(C(=O)N2CCN(c3cc(-c4ccc(Cl)cc4)[nH]n3)CC2)cc1` as the molecule, how does the CC50 read?
Answer: 19.3 µM [falling, partial curve]

Question: With `COc1ccc(OCC2(C)COc3ccc(C(=O)Nc4cccnc4)cc3N2)cc1` (stereo not given) as the molecule, how does the CC50 read?
Answer: 39.6 µM [falling, partial curve]

Question: For `O=C(Nc1ccc2cn[nH]c2c1)c1ccc2c(c1)OCCN(c1ccccc1)C2`, which CC50 is on record?
Answer: 44.4 µM [falling, single point]

Question: With `COc1ccc(NC(=O)Cc2c[nH]c3ncc(-c4ccccc4C)cc23)cc1` as the molecule, how does the CC50 read?
Answer: 39.6 µM [falling, partial curve]

Question: With `Cc1ccc(C(=O)N2CCC(Cc3nc(-c4ccccc4)no3)CC2)cn1` as the molecule, how does the CC50 read?
Answer: 5.44 µM [falling, full curve]

Question: With `COc1ccc(CCCN2C(=O)O[C@@H]3CN(c4cc(OC)ncn4)C[C@@H]32)cc1` as the molecule, how does the CC50 read?
Answer: 19.3 µM [falling, partial curve]

Question: With `Cc1ccc(NC(=O)C2CCN(c3cc(C(F)(F)F)ncn3)CC2)cc1` as the molecule, how does the CC50 read?
Answer: 19.3 µM [falling, partial curve]

Question: Which CC50 does the source give for `O=c1[nH]c(C2CCN(Cc3ccc(-c4cccnc4)cc3)CC2)nc2ccc(F)cc12` here?
Answer: 12.2 µM [falling, partial curve]

Question: With `O=C(C[C@@H]1CCNC[C@@H]1Cc1cc(CC2CCCCC2)on1)NCc1ccccc1` as the molecule, how does the CC50 read?
Answer: 28 µM [falling, partial curve]

Question: Which CC50 does the source give for `COc1ccc(C(=O)Nc2ccc(-c3noc([C@@H]4CCCN4Cc4ccccc4C)n3)cn2)cc1` here?
Answer: 9.68 µM [falling, partial curve]

Question: For `O=C(Nc1ccc(Oc2ccccc2)cc1)O[C@@H]1CO[C@H]2[C@@H]1OC[C@@H]2NCC1CCCCC1`, which CC50 is on record?
Answer: 15.3 µM [falling, partial curve]

Question: For `Clc1ccc2nc(N3CCC(NCCc4cccnc4)CC3)sc2c1`, which CC50 is on record?
Answer: 19.3 µM [falling, partial curve]

Question: For `c1csc(-c2ccnc(N[C@H]3CO[C@H]4[C@@H]3OC[C@@H]4NCC3CCCCC3)n2)c1`, which CC50 is on record?
Answer: 25 µM [falling, partial curve]

Question: Which CC50 does the source give for `COc1cccc(-c2ccc(CN3CCCC(c4nc5ccc(C)cc5c(=O)[nH]4)C3)cc2)c1` (stereo not given) here?
Answer: 24.3 µM [falling, partial curve]

Question: With `CC(C)(C)c1csc(NC(=O)c2ccc3c(c2)OCCN(C2CCC2)C3)n1` as the molecule, how does the CC50 read?
Answer: 28 µM [falling, partial curve]

Question: With `O=C(Nc1ccc(Oc2ccccc2)cc1)N[C@H]1CO[C@H]2[C@@H]1OC[C@@H]2n1nnnc1Oc1ccc(-n2ccnc2)cc1` as the molecule, how does the CC50 read?
Answer: 19.3 µM [falling, partial curve]

Question: With `COc1ccc(C(=O)N2CCC3(CC2)N=C(c2ccc(Br)cc2)NO3)cc1` as the molecule, how does the CC50 read?
Answer: 19.3 µM [falling, partial curve]

Question: With `CC(C)(Oc1nn(Cc2cccc(Cl)c2)c2ccccc12)C(=O)NCCc1cnc[nH]1` as the molecule, how does the CC50 read?
Answer: 35.3 µM [falling, partial curve]

Question: With `CC(=O)N1CCc2cc(S(=O)(=O)CCC(=O)N3CCC(CCOc4ccccc4)C3)ccc21` (stereo not given) as the molecule, how does the CC50 read?
Answer: 24.3 µM [falling, partial curve]

Question: With `COc1ccc(OC)c(CN2CCCn3nc(C)c(-c4ccccc4OCc4ccccc4)c32)c1` as the molecule, how does the CC50 read?
Answer: 21.7 µM [falling, partial curve]

Question: With `CC(C)OC(=O)N1CCC(COc2ccc3c(cnn3CC[S+](C)(=O)[O-])c2)CC1` as the molecule, how does the CC50 read?
Answer: 25 µM [falling, partial curve]

Question: Which CC50 does the source give for `CN(C(=O)c1ccc2c(c1)NC(C)(COc1cccnc1)CO2)c1ccccc1` (stereo not given) here?
Answer: 7.89 µM [falling, full curve]

Question: Which CC50 does the source give for `CC(C)c1ccc(NC(=O)c2cc3n(n2)CC(c2ccc(Cl)cc2)OC3)cc1` (stereo not given) here?
Answer: 15.3 µM [falling, partial curve]

Question: For `CC1=NS(=O)(=O)N(C)C=C1C(=O)OCc1nc(-c2ccc(Br)cc2)no1`, which CC50 is on record?
Answer: 19.3 µM [falling, partial curve]

Question: Which CC50 does the source give for `CNC(=O)c1cccc(-c2cnc3[nH]cc(CC(=O)N(C)c4ccccc4)c3c2)c1` here?
Answer: 35.3 µM [falling, partial curve]

Question: With `O=C(c1ccc(F)cc1Cl)N1CCC(n2cc(-c3nc(C4CC4)no3)nn2)C1` (stereo not given) as the molecule, how does the CC50 read?
Answer: 27.3 µM [falling, partial curve]

Question: Which CC50 does the source give for `CCCc1cc(C(=O)N(C)CCOc2ccccc2CC)n(C)n1` here?
Answer: 17.2 µM [falling, partial curve]

Question: With `COc1cccc(N2CCN(c3nc(C(=O)NCc4ccccc4F)cs3)CC2)c1` as the molecule, how does the CC50 read?
Answer: 27.3 µM [falling, partial curve]

Question: Which CC50 does the source give for `O=C(c1ccc(F)c(F)c1)N1CCC(n2cc(-c3nc(-c4ccccc4)no3)nn2)CC1` here?
Answer: 21.7 µM [falling, partial curve]

Question: With `CCc1ccc(C(=O)N2CCC(Cc3nc(-c4ccc(F)cc4)no3)CC2)cc1` as the molecule, how does the CC50 read?
Answer: 3.43 µM [falling, partial curve]

Question: Which CC50 does the source give for `COc1ccc(C(=O)Nc2ccc(-c3noc([C@@H]4CCCN4Cc4c[nH]c5ccccc45)n3)cn2)cc1` here?
Answer: 15.3 µM [falling, partial curve]

Question: With `O=C1CCN(Cc2ccc(C(F)(F)F)cc2)CCCC(c2nc(-c3cccnc3)no2)CCN1` (stereo not given) as the molecule, how does the CC50 read?
Answer: 19.3 µM [falling, partial curve]

Question: With `O=C(Nc1ccc(Oc2ccccc2)cc1)O[C@@H]1CO[C@H]2[C@@H]1OC[C@@H]2NC(=O)c1ccc(C(F)(F)F)cc1` as the molecule, how does the CC50 read?
Answer: 9.68 µM [falling, partial curve]

Question: Which CC50 does the source give for `Cc1cc(=O)n(CC(=O)Nc2ccc(Br)cc2F)c(N(C)Cc2ccccc2)n1` here?
Answer: 17.2 µM [falling, partial curve]

Question: For `O=C(c1ccccc1F)N1CCC(n2cc(-c3nc(-c4ccccc4)no3)nn2)C1` (stereo not given), which CC50 is on record?
Answer: 24.3 µM [falling, partial curve]

Question: For `CCc1ccc(C(=O)N2CCC(Cc3nc(C(C)C)no3)CC2)cc1`, which CC50 is on record?
Answer: 27.3 µM [falling, partial curve, poor fit]

Question: For `COc1ccc(NC(=O)Cn2c(N(C)Cc3ccccc3)nc(C)cc2=O)cc1`, which CC50 is on record?
Answer: 17.2 µM [falling, partial curve]

Question: With `COc1ccc(CNC(=O)N2CCC(Oc3ccc(-c4noc(C5CC5)n4)cc3)C2)cc1` (stereo not given) as the molecule, how does the CC50 read?
Answer: 43.2 µM [falling, single point]

Question: With `Cc1ccc(-c2noc(CCCC(=O)N3CCC(CCOc4ccccc4F)C3)n2)cc1` (stereo not given) as the molecule, how does the CC50 read?
Answer: 17.2 µM [falling, partial curve]

Question: Which CC50 does the source give for `COc1cccc(-c2noc(CC3CCN(C(=O)CCc4ccccc4)CC3)n2)c1` here?
Answer: 30.6 µM [falling, single point]

Question: Which CC50 does the source give for `COc1ccc(CN2CCOc3nc(-c4cccc(C(F)(F)F)c4)ncc3C2=O)cc1` here?
Answer: 39.6 µM [falling, partial curve]

Question: With `Cc1cc(CNC(=O)c2ccc(-c3ccccc3Cl)o2)n(C)n1` as the molecule, how does the CC50 read?
Answer: 15.3 µM [falling, partial curve]

Question: For `Cc1cc(NC(=O)C(C)(C)Oc2nn(CCOc3ccccc3)c3ccccc23)n(C)n1`, which CC50 is on record?
Answer: 35.3 µM [falling, partial curve]

Question: Which CC50 does the source give for `CC1(CCCCc2ccccc2)COc2ccc(C(=O)NC3CC3)cc2N1` (stereo not given) here?
Answer: 35.3 µM [falling, partial curve]

Question: For `CCC1Oc2ccc(NC(=O)c3ccccc3OC(C)=O)cc2CN(Cc2ccccc2F)C1=O` (stereo not given), which CC50 is on record?
Answer: 30.6 µM [falling, single point]

Question: For `COc1ccc(C(=O)N2CCN(c3cc(-c4cccs4)[nH]n3)CC2)c(C)c1`, which CC50 is on record?
Answer: 19.3 µM [falling, partial curve]

Question: For `COc1ccc(-c2cn3c(n2)CO[C@@H](CNS(=O)(=O)c2ccc(C)cc2)C3)cc1`, which CC50 is on record?
Answer: 35.3 µM [falling, partial curve]

Question: With `Cc1ccccc1CN1Cc2nc(NCc3cccc(F)c3)ccc2OCC1=O` as the molecule, how does the CC50 read?
Answer: 35.3 µM [falling, partial curve]

Question: For `COc1ccc(OC)c(NC(=O)Cn2c(N3CCC(C)CC3)nc(C)cc2=O)c1`, which CC50 is on record?
Answer: 19.3 µM [falling, partial curve]

Question: With `COc1cccc(C(=O)N2CCCN(c3cc(-c4ccc(C)c(C)c4)[nH]n3)CC2)c1OC` as the molecule, how does the CC50 read?
Answer: 21.7 µM [falling, partial curve]

Question: Which CC50 does the source give for `O=C(c1ccccc1)N1CCNc2cnc(Nc3cccc(F)c3)nc2C1` here?
Answer: 31.4 µM [falling, partial curve]

Question: For `Cc1ccccc1CC(=O)N1CCN(C(=O)c2nnn3c2COC(c2ccc(Cl)cc2)C3)CC1` (stereo not given), which CC50 is on record?
Answer: 19.3 µM [falling, partial curve]

Question: With `c1cncc(COc2cc3c(cn2)NCCN(Cc2ccc4[nH]ccc4c2)C3)c1` as the molecule, how does the CC50 read?
Answer: 31.4 µM [falling, partial curve]

Question: For `COc1ccc(C(=O)N2CCN(C(=O)c3nnn4c3COC(c3ccc(Cl)cc3)C4)CC2)cc1F` (stereo not given), which CC50 is on record?
Answer: 24.3 µM [falling, partial curve]

Question: With `O=C(Nc1ccc(Oc2ccccc2)cc1)O[C@@H]1CO[C@H]2[C@@H]1OC[C@@H]2NS(=O)(=O)c1ccc(Cl)cc1` as the molecule, how does the CC50 read?
Answer: 17.2 µM [falling, partial curve]

Question: With `Cc1nn(C)c(C)c1C(C)NC(=O)c1ccc(CC2CCN(C(=O)C3CC3)CC2)cc1` (stereo not given) as the molecule, how does the CC50 read?
Answer: 13.7 µM [falling, partial curve]

Question: With `COCc1cc(NCCSCc2ccccc2C)ncn1` as the molecule, how does the CC50 read?
Answer: 19.3 µM [falling, partial curve]

Question: Which CC50 does the source give for `CC1(C)[C@H](Cc2cc(COC(=O)c3cccs3)on2)C[C@@H]1NC(=O)c1cccs1` here?
Answer: 31.4 µM [falling, partial curve]

Question: With `Cc1nn2c(c1-c1ccccc1-c1ccccc1)N(CCC(C)C)CCC2` as the molecule, how does the CC50 read?
Answer: 44.4 µM [falling, single point]
